Reference: PubChem BioAssay AID624417 (National Center for Advancing Translational Sciences (NCATS), 2012)
The campaign covered roughly 410,000 compounds. About 6,400 (1.6%) were called active. The inconclusive results got no clear call from the source; some entries with a clear call stand among them for comparison. Calls follow the shape of the dose curve; as a rule, active = well fitted inhibition curve with a large enough effect; inconclusive = small, poorly fitted or top-dose-only effect; inactive = no such curve, though single readings can be large or run the other way. Potencies of inconclusive entries are left out as doubtful fits.

Target: Glucagon-like peptide 1 receptor (Homo sapiens) (UniProt P43220)
Sequence of UniProt P43220 (P43220 whole entry, looked up): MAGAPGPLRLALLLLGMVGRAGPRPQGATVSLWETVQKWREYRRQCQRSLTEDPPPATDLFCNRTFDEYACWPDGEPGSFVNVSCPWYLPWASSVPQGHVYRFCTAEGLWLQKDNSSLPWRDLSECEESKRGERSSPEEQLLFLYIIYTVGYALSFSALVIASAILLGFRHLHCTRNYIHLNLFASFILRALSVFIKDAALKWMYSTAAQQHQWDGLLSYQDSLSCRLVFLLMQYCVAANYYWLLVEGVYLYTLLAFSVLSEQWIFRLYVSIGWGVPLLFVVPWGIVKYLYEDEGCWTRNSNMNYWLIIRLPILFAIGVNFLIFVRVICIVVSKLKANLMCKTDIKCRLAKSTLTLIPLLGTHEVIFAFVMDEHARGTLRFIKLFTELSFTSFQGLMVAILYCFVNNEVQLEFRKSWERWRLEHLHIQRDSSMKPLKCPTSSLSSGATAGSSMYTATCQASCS
Assay: qHTS of GLP-1 Receptor Inverse Agonists (Inhibition Mode); also: nearly all actives have a fitted effect of over 55% in size
Details: HEK293 GLP-1R CRE-luciferase, luminescence, 24 h, GLP-1R form is constitutively active; activity change, negative = inhibition: at 38.3 µM (top of the series) unless noted
Outline: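 Luminescence readout: a drop in cAMP-driven luciferase signal flags inverse agonism at a constitutively active GLP-1R stably expressed in HEK293. Compound exposure lasted 24 hr at 37 deg C, 5% CO2.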
% is scaled to controls: 0 for no effect and ±100 for the full control effect; potency is read from the fitted curve at half-maximal effect; tags tell the direction and shape of the fitted curve.

SMILES	Potency	activity change, negative = inhibition
COc1ccc(N2CCN(c3nc4ccccc4nc3NS(=O)(=O)c3ccccc3)CC2)cc1	inconclusive [inhibitor, single point]	
C[C@@H]1CN([C@@H](C)CO)C(=O)c2cccc(NC(=O)C3CCCCC3)c2O[C@@H]1CN(C)C(=O)NC1CCCCC1	inconclusive [inhibitor, single point]	
COc1ccc(C)c2sc(NC(=O)CCS(=O)(=O)c3ccccc3)nc12		inactive: 19.4%
O=C(OCCN1CCOCC1)c1ccccc1Cl		inactive: 15.8%
COCCCNC(=O)CCc1c(C)nc2c(c(C)nn2-c2ccc(C)cc2)c1C	inconclusive [inhibitor, single point]	
COc1ccc(CSCC(=O)N/N=C/c2ccc(OCC(=O)N3CCCCC3)cc2)cc1		inactive: 9.01%
O=C(NC(=S)Nc1cccc(NC(=O)c2ccccc2)c1)c1cccc([N+](=O)[O-])c1		inactive: -1.18%
Clc1ccc(CCNC(c2ccc(Cl)cc2)c2nnc(-c3ccccc3)o2)cc1 (configuration not stated)	inconclusive [inhibitor, partial curve, poor fit]	
CSCCC(NS(=O)(=O)c1ccc(C)cc1)C(=O)NCCc1c[nH]c2ccccc12 (configuration not stated)	inconclusive [inhibitor, single point]	
Cc1c(C)n(-c2ccccc2)c2ncnc(NCCN(C)C)c12	inconclusive [inhibitor, partial curve, poor fit]	
COc1ccc2c(c1)c1ncn(CCN3CCCCC3)c(=O)c1n2C		inactive: 65%
COc1ccc(OCCn2cc(C=O)c3ccccc32)cc1	inconclusive [inhibitor, partial curve, poor fit]	
CN(Cc1ccc(Cl)s1)C(=O)CCl	inconclusive [inhibitor, partial curve, poor fit]	
CC1CC(C)(C)Nc2ccc(N=O)cc21 (configuration not stated)	inconclusive [inhibitor, single point]	
O=C(NCCc1ccc(Cl)cc1)C1CCN(S(=O)(=O)c2ccc(-n3cnnn3)cc2)CC1	inconclusive [inhibitor, single point]	
Cc1ccc(S(=O)(=O)NNC(=O)c2cnn(-c3ccc(Cl)cc3)c2C(F)(F)F)cc1	inconclusive [inhibitor, single point]	
O=C(O)c1ccc2nc(-c3ccccc3)sc2c1	inconclusive [inhibitor, full curve, poor fit]	
CCCCOC(=O)CSCC(=O)N1N=C(c2cccs2)CC1c1ccc(F)cc1 (configuration not stated)	inconclusive [inhibitor, partial curve, poor fit]	
Cc1sc2ncnc(N3CCCCC3)c2c1C		inactive: 51.3%
O=C(CCc1ccccc1)N/N=C\c1cc2c(cc1Br)OCO2	inconclusive [inhibitor, single point]	
CC1CCN(C(=O)CCc2ccc(Oc3cc([N+](=O)[O-])cc([N+](=O)[O-])c3)cc2)CC1	inconclusive [inhibitor, single point]	

SMILES	Potency	activity change, negative = inhibition
O=C(O)CCCCCCCCc1cn(Cc2ccc(C(=O)c3ccccc3)cc2)nn1	inconclusive [inhibitor, full curve, poor fit]	
Cc1cc(C)n(-c2nc(NCC3CCCO3)c3c4c(sc3n2)COC(C)(C)C4)n1 (configuration not stated)	inconclusive [inhibitor, full curve, poor fit]	
COc1cc2c(cc1NC(=O)c1cccnc1)oc1ccccc12	inconclusive [inhibitor, single point]	
NS(=O)(=O)c1ccc(N2N=C(c3ccc(Br)cc3)CC2c2ccc(F)cc2)cc1 (configuration not stated)	inconclusive [inhibitor, partial curve, poor fit]	
O=C(CNC(=O)c1[nH]cnc1C(=O)N[C@@H](Cc1ccccc1)C(=O)OCc1ccccc1)OCc1ccccc1	inconclusive [inhibitor, single point]	
COc1ccc(C(CC(=O)N2CCCC2)c2ccc(F)cc2)cc1 (configuration not stated)	inconclusive [inhibitor, single point]	
CCc1ccc(C(C)NC(=O)c2ccc(F)cc2)cc1 (configuration not stated)	inconclusive [inhibitor, partial curve, poor fit]	
CCCc1cc(C(=O)NCCc2ccccc2)no1	inconclusive [inhibitor, single point]	
COCCCNC(=S)NNC(=O)C1CC1c1ccc(C(C)(C)C)cc1 (configuration not stated)	inconclusive [inhibitor, partial curve, poor fit]	
CCCCNC(=S)N=Nc1c(O)n(Cc2ccccc2)c2ccccc12	inconclusive [inhibitor, single point]	
O=C(Nc1ccccc1-c1nnn(CC(=O)N2CCCc3ccccc32)n1)c1cccc(Cl)c1	inconclusive [inhibitor, partial curve, poor fit]	
O=S(=O)(c1ccc(Cl)cc1)c1nc(-c2cccs2)oc1SCc1ccccc1F	active: 10 µM	
Cc1nc2ccccc2n1/N=C/c1ccc([N+](=O)[O-])s1		inactive: 2.56%
CN(Cc1cn(-c2ccccc2)nc1-c1ccc2c(c1)OCO2)Cc1nccn1C	inconclusive [inhibitor, single point]	
COc1ccc(C(=O)CCC(=O)Nc2cccc(Cl)c2)cc1	inconclusive [inhibitor, partial curve]	
Cc1ccc([N+](=O)[O-])cc1N(CC(=O)Nc1ccc(S(=O)(=O)Nc2cccc(C(F)(F)F)c2)cc1)S(C)(=O)=O	active: 1 µM	
O=C(CSc1nnc(CNC(=O)C23CC4CC(CC(C4)C2)C3)n1-c1ccccc1)Nc1ccccc1	inconclusive [inhibitor, single point]	
Cc1cccc(-c2ccc3c(c2)C2CC3CCN2C(=O)OCc2ccccc2)c1 (configuration not stated)	inconclusive [inhibitor, single point]	
CC(C)C(C)(C#N)NC(=O)CSc1nc2scc(-c3ccc(F)cc3)c2c(=O)n1Cc1ccccc1 (configuration not stated)	inconclusive [inhibitor, single point]	
COc1ccc(-n2nc(C(=O)Nc3ccc(C(C)=O)cc3)nc2-c2ccccc2)cc1	inconclusive [inhibitor, single point]	
Cc1ccc(NC(=S)C2=C(O)c3ccccc3N(C)S2(=O)=O)cc1	inconclusive [inhibitor, partial curve, poor fit]	

SMILES	Potency	activity change, negative = inhibition
COCCCNC(=O)c1c[nH]c2ccc(S(=O)(=O)N(C)c3ccccc3C)cc2c1=O	inconclusive [inhibitor, partial curve, poor fit]	
COc1ccc(OCC(=O)Nc2ccc(C)c(S(=O)(=O)N(C)C)c2)cc1	inconclusive [inhibitor, single point]	
Cc1cc(C(=O)CSc2nnc(-c3ccccc3)n2-c2ccccc2)c(C)n1-c1ncn[nH]1		inactive: -8.74%
Cc1cc(-c2ccc(S(=O)(=O)Nc3ccc(Cl)cc3)cc2)on1	inconclusive [inhibitor, single point]	
CN(C)Cc1cc(CCNC(=O)c2ccc(Cl)cc2)ccc1O	inconclusive [inhibitor, single point]	
Cc1[nH]c2ccc(-c3nnc(SCC(=O)c4ccccc4F)o3)cc2c1C	inconclusive [inhibitor, single point]	
CC(C)Oc1ccc(CNC(=O)c2sc3ncccc3c2-n2cccc2)cc1	inconclusive [inhibitor, single point]	
Cc1cc(C)cc(NC(=S)NCC2CCN(C(C)c3ccccc3)C2)c1 (configuration not stated)	active: 10 µM	
Cn1c(=O)c2c(ncn2CC(=O)Nc2nc3ccc(F)cc3s2)n(C)c1=O	inconclusive [inhibitor, partial curve, poor fit]	
CN(CC#CCC(c1ccccc1)c1ccccc1)C(C)(C)C	inconclusive [inhibitor, single point]	
O=C(NCCN1CCOCC1)c1ccc2c(c1)N(Cc1cccc(F)c1)C(=O)c1ccccc1S2	inconclusive [inhibitor, partial curve, poor fit]	
COc1ccc(N2C(=O)C(CC(=O)Nc3ccccc3)N(CCC3=CCCCC3)C2=O)cc1 (configuration not stated)		inactive: -4.72%
Cc1[nH]c2ccccc2c1C1(O)C(=O)N(Cc2ccccc2)c2ccc(Cl)cc21 (configuration not stated)	inconclusive [inhibitor, single point]	
CCNC(=O)NC(=O)C(C)Oc1ccc(Br)cc1Br (configuration not stated)	inconclusive [inhibitor, single point]	
COc1ccc(-c2nnc(NC(=O)c3ccc(S(=O)(=O)N4CCCc5ccccc54)cc3)o2)cc1	inconclusive [inhibitor, partial curve, poor fit]	
O=C(CSc1cccc2cccnc12)N/N=C/c1ccc(F)cc1	inconclusive [inhibitor, partial curve, poor fit]	
CSc1ccc(-c2nc3cccc(C)n3c2Nc2ccc3c(c2)OCO3)cc1	active: 10 µM	
COc1ccc(/C=C/CN2CCCC(CCC(=O)NCc3ccc(F)c(F)c3)C2)cc1 (configuration not stated)	inconclusive [inhibitor, partial curve, poor fit]	
CCOC(=O)Cc1nnc(Nc2ccc(C)cc2)c2ccccc12	inconclusive [inhibitor, single point]	
CC(C)=CCCC(C)c1cc(C(=O)NCCc2ccc(O)cc2)c(N)s1 (configuration not stated)	inconclusive [inhibitor, partial curve, poor fit]	
